Among all 310,000 compounds or so, about 14,000 (4.5%) showed an effect of 50% or more. The effect is printed as a negative number. This is one part of the list.
Biological target: human ether-à-go-go-related gene (hERG) potassium channel (human, UniProt Q12809)
Test: primary screen, population patch clamp on CHO cells stably expressing hERG
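Also: peak tail current of the secondary pulse compared with the same well before compound.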

human ether-à-go-go-related gene (hERG) potassium channel, sequence (Q12809 whole entry, looked up): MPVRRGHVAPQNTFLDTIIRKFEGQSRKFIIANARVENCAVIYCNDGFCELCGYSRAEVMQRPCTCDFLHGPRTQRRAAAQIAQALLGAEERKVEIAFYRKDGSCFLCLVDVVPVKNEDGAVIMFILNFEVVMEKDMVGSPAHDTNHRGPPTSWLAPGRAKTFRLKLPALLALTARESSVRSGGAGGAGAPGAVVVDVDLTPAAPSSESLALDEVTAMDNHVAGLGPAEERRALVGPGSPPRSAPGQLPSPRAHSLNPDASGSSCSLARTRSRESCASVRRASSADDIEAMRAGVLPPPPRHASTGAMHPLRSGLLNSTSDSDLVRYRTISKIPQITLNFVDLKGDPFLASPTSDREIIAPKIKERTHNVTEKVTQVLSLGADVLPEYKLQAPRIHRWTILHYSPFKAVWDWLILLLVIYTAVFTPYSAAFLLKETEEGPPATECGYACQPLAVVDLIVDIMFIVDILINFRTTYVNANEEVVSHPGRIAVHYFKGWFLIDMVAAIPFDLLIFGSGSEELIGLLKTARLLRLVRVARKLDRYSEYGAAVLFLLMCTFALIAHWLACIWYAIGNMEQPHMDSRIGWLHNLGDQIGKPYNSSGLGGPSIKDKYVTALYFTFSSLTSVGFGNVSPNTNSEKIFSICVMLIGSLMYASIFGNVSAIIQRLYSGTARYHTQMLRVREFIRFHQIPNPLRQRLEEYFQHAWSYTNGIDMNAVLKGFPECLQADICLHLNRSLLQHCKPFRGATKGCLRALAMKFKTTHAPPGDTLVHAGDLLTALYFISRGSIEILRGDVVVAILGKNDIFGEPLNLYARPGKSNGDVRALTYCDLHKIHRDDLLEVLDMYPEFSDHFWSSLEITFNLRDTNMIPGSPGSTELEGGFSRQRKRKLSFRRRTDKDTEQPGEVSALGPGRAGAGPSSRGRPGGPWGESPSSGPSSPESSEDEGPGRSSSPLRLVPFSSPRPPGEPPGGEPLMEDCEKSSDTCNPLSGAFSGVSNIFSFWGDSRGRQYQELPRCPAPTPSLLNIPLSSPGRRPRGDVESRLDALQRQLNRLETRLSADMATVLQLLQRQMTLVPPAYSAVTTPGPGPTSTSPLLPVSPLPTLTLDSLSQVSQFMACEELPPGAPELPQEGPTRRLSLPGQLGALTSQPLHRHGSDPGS

SMILES	hERG current change (%, negative = inhibition) at 10uM [%]
O=S(=O)(c1ccc2ncn(O)c2c1)N1CCOCC1	14.1
C/C(=N\NC(=O)CNc1cccc(C)c1)c1ccc(Br)s1	-7.6
O=C(c1ccc(CNS(=O)(=O)c2ccccc2)cc1)N1CCN(Cc2ccccc2)CC1	-33
COc1ccc(S(=O)(=O)N2CCCC2C(=O)Nc2ccc(C)cc2)cc1 (centres unmarked)	-15.3
O=C(CSc1ccc(Cl)cc1)Nc1ncccn1	0.972
Cc1ccc(S(=O)(=O)C2(S(=O)(=O)c3ccc(C)cc3)CC2)cc1	-3.92
COc1ccc(Br)cc1CN(C)C(=O)c1ccc2c(c1)NC(=O)C(C)S2 (centres unmarked)	-2.12
CCOc1ncccc1C(=O)OCC(=O)Nc1cc(S(=O)(=O)N2CCOCC2)ccc1Cl	-33.8
COc1ccc(C(=O)CC(=O)Nc2ccc([N+](=O)[O-])cc2)cc1	-1.39
COc1ccc(C)cc1S(=O)(=O)N(C)CC(=O)NC1CCCCCC1	6.33
N#C/C(=C\N1CCN(Cc2ccc3c(c2)OCO3)CC1)c1nc2ccccc2s1	-52.8
Cc1cc(C)c(C(=O)Cn2cnc3cc([N+](=O)[O-])ccc3c2=O)cc1C	19.2
COc1cc2c(cc1OC)CN(Cc1cccs1)CC2	-42.9
COc1ccc(CNC(=O)C2COc3ccccc3O2)c(OC)c1 (centres unmarked)	-26.4
C=CCNc1nc(Cl)nc(NCc2ccco2)n1	11.4
CSc1ccc(CN2CCN(C(=O)c3ccc([N+](=O)[O-])cc3)CC2)cc1.O=C(O)C(=O)O	-77.2
CCOc1ccc(CCNC(=O)Cc2ccc(NC3=NC4CS(=O)(=O)CC4S3)cc2)cc1OCC (centres unmarked)	29.8
O=C(O)c1ccc(NS(=O)(=O)c2ccc(Cl)c(Cl)c2)cc1O	-1.71
COc1ccc(C(=O)N2CCC(C(=O)Nc3cccc(C)c3)CC2)cc1OC	-38.9
CCOC(=O)N1CCN(S(=O)(=O)c2cc(OCC(N)=O)c(C)cc2Cl)CC1	-1.36
O=C(COc1ncnc2c(Cl)cc(Cl)cc12)N1CCCCC1	-8.38
Cl.NCCS	14.9

SMILES	hERG current change (%, negative = inhibition) at 10uM [%]
NC(=O)c1cccnc1Nc1ccccc1F	0.0995
Cc1c(C#N)c(O)[nH]c(=O)c1N=Nc1ccc(Br)cc1C(=O)O	18.9
CSCCC(NC(=O)c1ccccc1Br)C(=O)NCC(c1ccco1)N1CCCCC1 (centres unmarked)	-40.5
Nc1c(C(=O)Nc2ccccc2F)sc2nc(Cc3ccccc3)cc(C(F)(F)F)c12	2.41
O=C(Nc1ccc(Cl)c(Cl)c1)N1CCC(N2CCCCC2)CC1	-63.5
O=C(Nc1ccccc1C(=O)Nc1ccccc1)c1ccco1	8.99
COc1ccc(N2CCN(C(=O)c3ccc(SC)cc3OC)CC2)cc1	-55.3
CCO[C@H]1OC(C(=O)NCc2ccccc2)=C[C@@H](c2cn(C(C)=O)c3ccccc23)[C@@H]1CCCO	-64.3
CC(/C=N/n1c(-c2ccc(C)cc2)n[nH]c1=S)=C\c1ccco1	12.5
COc1cc2c(cc1OC)CN(C(=O)/C=C/c1cccc([N+](=O)[O-])c1)CC2	-31.2
O=C(NC(Cc1ccccc1)C(=O)O)/C(=C/c1ccco1)NC(=O)c1cccc([N+](=O)[O-])c1 (centres unmarked)	24
COc1cc(C2C(C#N)=C(N)OC3=C2C(=O)CCC3)cc(OC)c1OC(=O)N1CCOCC1 (centres unmarked)	-17.7
CCC(C)Nc1nc(OCC(F)(F)F)nc(OCC(F)(F)F)n1 (centres unmarked)	2.17
COc1ccc(Oc2nc3ccccc3nc2C(F)(F)F)cc1	-12
NC(=O)c1cc(Cl)ccc1OCC(=O)N1CCCc2ccccc21	11.4
Nc1c(-c2cccc(Cl)c2)cnn1-c1cccc(C(F)(F)F)c1	-3.38
Cc1cc(C(=O)N/N=C2\CCCC(C)C2)n[nH]1 (centres unmarked)	11
CCCSc1ccc(-c2nn(-c3ccccc3)cc2/C=C(/C#N)C(=O)N2CCOCC2)cc1	9.39
COC(=O)c1cc(C(=O)c2cccc(Cl)c2Cl)cn1C	-43.4
C/C(=N\NC(=O)COc1ccc(C(C)(C)C)cc1)c1ccc(N2CCOCC2)cc1	5.99
COc1ccc(C(=O)CC2C(=O)N(C)C(=O)N(C)C2=O)cc1	3.03
O=[N+]([O-])c1ccc(C[n+]2c(-c3ccccc3)cc(-c3ccccc3)cc2-c2ccccc2)cc1.[O-][Cl+3]([O-])([O-])[O-]	-25.8

From PMC4336329 (PLoS ONE, 2015)
